Laboratory results as given in the supplement of paper PMC3334620.
Over roughly 33,000 sequences, “E-score (-0.5 to 0.5)” has its median near -0.016; the highest 2% begin near 0.31. The list shows a part of the results.

target: Cst6 (UniProt P40535); experiment: PBM E-score (8-mer binding enrichment) (E-score (-0.5 to 0.5)); higher = stronger / more preferred TF binding; most listed sequences are background and not binding sites; settings: protein concentration: 200 nM; construct: GST-DNA-binding domain
Experimental: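 Universal 'all 10-mer' protein binding microarrays (Agilent AMADID 015681) probed with GST-tagged S. cerevisiae TFs (full-length or DBD) made by in vitro transcription/translation (PURExpress), about 100-200 nM. Bound TF was detected with fluorescent anti-GST. Each ungapped 8-mer (which stands for itself and its reverse complement) is scored by the PBM enrichment score (E-score), a modified Wilcoxon-Mann-Whitney statistic from -0.5 to +0.5, computed with the Universal PBM Analysis Suite. Scale: above 0.35 generally sequence-specific binding.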

| Sequence | PBM E-score |
| --- | --- |
| AAGCAAAA | 0.17 |
| CACACGGG | -0.0293 |
| CAGCTCCA | -0.232 |
| AATACAAG | 0.118 |
| CCGCCCCC | -0.373 |
| CTCGAAAC | 0.0781 |
| CAAACAGG | -0.0882 |
| CAGCGGGC | -0.0805 |
| ACACTCGT | 0.0529 |
| CTCATCTA | -0.113 |
| TACCGGGA | -0.179 |
| AGTACAGA | -0.039 |
| AACATTAA | 0.157 |
| CGAATCAG | 0.0436 |
| ACCGCATC | 0.0649 |
| CGCGATTC | 0.125 |
| AGATCACC | 0.0858 |
| AGCACTGG | -0.144 |
| CCACTGAG | -0.214 |
| GATCCAAA | 0.169 |
| TACTACTA | 0.131 |
| AGCTCACC | -0.211 |
| AGTCCGAG | -0.226 |
| ACAACCAT | 0.325 |
| GTAATTGA | 0.287 |

| Sequence | PBM E-score |
| --- | --- |
| GATTTACC | 0.103 |
| CTAGCTAC | -0.112 |
| ATGGCAAT | 0.101 |
| GACCGGGA | -0.305 |
| AATGTCCA | -0.124 |
| CAAATTCA | -0.0122 |
| AACAAGCT | -0.115 |
| GTTTGGGA | 0.0263 |
| ACACCACT | 0.0996 |
| CCACCCGC | -0.192 |
| GATTCAAA | 0.116 |
| CATCCCAC | -0.0267 |
| ACTAATGG | 0.0198 |
| GATAGTGC | -0.134 |
| CGGCGCCA | 0.161 |
| ACGCCCCG | 0.0241 |
| CCTGACAC | 0.029 |
| CAGAGCCG | 0.138 |
| ATACCTAG | -0.0999 |
| AAGAGGAG | -0.301 |
| AGTGTGTA | 0.0987 |
| GAGTTATC | 0.0366 |
| CACCTTTA | -0.00154 |
| GATATACC | 0.0963 |
| AAACTTCC | -0.131 |

| Sequence | PBM E-score |
| --- | --- |
| AACGCGTT | 0.06 |
| GTTCCCCA | -0.0821 |
| TAGGAACA | -0.0743 |
| GATGTGAA | 0.131 |
| AAACGAAA | 0.191 |
| AAGCTCAG | -0.0554 |
| TAAGCTCA | -0.153 |
| CGTTTGAG | 0.134 |
| CCACACGA | -0.178 |
| GAACTTCC | -0.274 |
| AGATATCA | 0.198 |
| TGGTATAA | 0.21 |
| CATAACGC | 0.189 |
| CATAGCGC | 0.151 |
| ACCCTTAT | 0.0392 |
| CCCCCGGA | -0.355 |
| AATCGCGC | 0.134 |
| AAAATTCG | 0.22 |
| CGCGGTGA | 0.135 |
| GAAGCAAC | -0.0363 |
| AACGCGTC | 0.0448 |
| AAAACATC | 0.195 |
| CAACAGAG | -0.0105 |
| GCGAAATA | 0.064 |
| CCATACCC | -0.157 |

| Sequence | PBM E-score |
| --- | --- |
| CGGAGACA | -0.0524 |
| CTGTGGGC | -0.0905 |
| GGCACCGA | 0.0149 |
| CTGGGAGC | -0.361 |
| AGGAGGGC | -0.3 |
| CCATTCCA | -0.0676 |
| ACTGTATG | -0.0381 |
| CGGCCAGA | -0.0582 |
| ACGGCTAG | 0.0922 |
| GGTGACTA | 0.159 |
| CCTGATGC | 0.0754 |
| AACCCATT | -0.0193 |
| AGGTGACG | 0.452 |
| AAGAGTCG | 0.046 |
| CCCGAGAA | -0.159 |
| ATACCCAG | -0.246 |
| ATTGAACA | -0.0356 |
| CACGTCAC | 0.489 |
| GGGATCCA | -0.109 |
| CGTGTAGA | 0.107 |
| CAATATAA | 0.312 |
| TGCGAGCA | -0.143 |
| CGTACGGC | 0.254 |
| ATATAACG | 0.267 |
| CGAAGCCC | -0.183 |

| Sequence | PBM E-score |
| --- | --- |
| GGCCACAA | -0.0219 |
| AAGCAGTG | 0.0603 |
| GAAACGGA | 0.121 |
| CGCAGGCC | -0.128 |
| CGCAGCGA | -0.119 |
| CGCGCGTC | 0.167 |
| ATTGTCGC | 0.0295 |
| ATATGAGG | -0.0432 |
| CCCCGCAG | -0.275 |
| CCTCTATA | -0.0674 |
| ACGAAAAA | 0.296 |
| GGGTCCCA | -0.228 |
| CCGGCACG | -0.1 |
| CGGCTAAG | 0.00043 |
| AAAGCTAG | -0.227 |
| CTCGAGGC | -0.0847 |
| CATGGACG | 0.0763 |
| CGCGCCGC | 0.326 |
| CTGTGCCA | -0.147 |
| CGCTCCCG | -0.159 |
| ACCAACCC | -0.0564 |
| ACGTCGGA | -0.0746 |
| ACAGCTGA | 0.0339 |
| AGAATTAT | 0.142 |
| AACGCGTG | 0.078 |

| Sequence | PBM E-score |
| --- | --- |
| AGGTTCAG | -0.0185 |
| CTTCCTCC | -0.235 |
| CTTAAAAA | 0.177 |
| AAGTCACC | 0.188 |
| CTAAGCTA | 0.0543 |
| AGTCGGGC | -0.202 |
| ACTGCTCC | -0.199 |
| GGAGCTGA | -0.207 |
| CCTCCGAG | -0.31 |
| TGCAAGAA | 0.141 |
| GAATGGAA | 0.0883 |
| GGATCGGA | -0.114 |
| AAGGGTAA | -0.154 |
| GATGGTCA | -0.00406 |
| AAATCAGG | 0.0578 |
| CCAGAGGA | -0.166 |
| CCGAACGC | 0.162 |
| ACACGAGG | -0.0185 |
| CGAAATCG | 0.0477 |
| CTTAGATC | -0.0573 |
| CTGAACAA | 0.138 |
| AAACACTC | 0.0497 |
| AGGATCTC | -0.182 |
| CTGCACAA | -0.0605 |
| CAACCGAC | 0.0629 |

| Sequence | PBM E-score |
| --- | --- |
| AGCACACA | -0.16 |
| ATGGGTGC | -0.135 |
| CTTCGTGA | 0.0569 |
| AGGAGTCC | -0.234 |
| ATCATCCG | 0.0385 |
| TCGGCACA | -0.0165 |
| GACGGCCC | -0.163 |
| ACCCGGCT | -0.204 |
| CCGAGTTA | 0.00264 |
| TCTGCACA | -0.0745 |
| GACTGTTA | 0.0425 |
| CTGTTCCA | -0.0344 |
| AAGCAGGC | -0.24 |
| ATTGACTA | -0.0205 |
| CCAGGGAG | -0.35 |
| CTCTTGGA | -0.134 |
| GAAATCTC | -0.00885 |
| GGCCGTCA | 0.0436 |
| AGAAGGGG | -0.222 |
| CATCCTTA | 0.00972 |
| CCTGCGCG | -0.0722 |
| CCGCCTCA | -0.129 |
| ACATTCAC | 0.0696 |
| ACGTTAAC | 0.207 |
| CGAAGATA | 0.154 |

| Sequence | PBM E-score |
| --- | --- |
| ATTTGATG | 0.13 |
| ACGCTCTG | -0.215 |
| CCACCATA | -0.034 |
| GTCTCCCA | -0.244 |
| ATCACCAC | 0.244 |
| ATAAGGGC | 0.0296 |
| ACTTAGCG | 0.107 |
| AGGCAAAC | 0.042 |
| GTCGAACA | 0.0815 |
| ACTTTGAA | 0.0348 |
| CAGTAGTC | -0.195 |
| CACCGCTC | -0.00806 |
| ATGATATG | 0.269 |
| GTGCACGA | -0.0324 |
| GGAGTGAC | 0.225 |
| CAGAGAGG | -0.396 |
| CCTTCTCG | -0.264 |
| GCAAGGAC | -0.214 |
| GCACCTGA | -0.0138 |
| AAGACAAC | 0.195 |
| GCGGAAAA | 0.17 |
| AAGTCTAG | -0.297 |
| ACCATGAC | 0.395 |
| ACACAGTA | -0.0321 |
| ATTTGACC | 0.0657 |

| Sequence | PBM E-score |
| --- | --- |
| ACCCTGAT | -0.133 |
| AACGATGG | -0.0234 |
| ACAGAACT | 0.067 |
| AATCTAAA | 0.0998 |
| CTGATATC | 0.174 |
| AGATGAGA | 0.00259 |
| CTCTCAGA | -0.0636 |
| ACTCGTGG | -0.0561 |
| CAGATAAC | 0.057 |
| ACCGTTAG | 0.059 |
| AGCCAATG | -0.174 |
| AATATGAC | 0.35 |
| CCTATTAA | -0.0552 |
| ACCGGTAA | 0.0331 |
| GTGTCGTA | 0.2 |
| GAGGAGGA | -0.288 |
| CCCTGCCG | -0.3 |
| AATTATTG | 0.252 |
| AAAGAGTT | -0.00381 |
